Assay results reported in the supplement of paper PMC3334620.
In all, about 33,000 sequences were measured (“E-score (-0.5 to 0.5)”: median about -0.012, highest 2% from about 0.29 on). This is one part of the list.

These sequences were tested against T1, Ybr033w (UniProt P38073) (assay: PBM E-score (8-mer binding enrichment) (E-score (-0.5 to 0.5)); higher = stronger / more preferred TF binding; most listed sequences are background and not binding sites). Conditions: protein concentration: 200 nM; construct: GST-full length.
T1 sequence: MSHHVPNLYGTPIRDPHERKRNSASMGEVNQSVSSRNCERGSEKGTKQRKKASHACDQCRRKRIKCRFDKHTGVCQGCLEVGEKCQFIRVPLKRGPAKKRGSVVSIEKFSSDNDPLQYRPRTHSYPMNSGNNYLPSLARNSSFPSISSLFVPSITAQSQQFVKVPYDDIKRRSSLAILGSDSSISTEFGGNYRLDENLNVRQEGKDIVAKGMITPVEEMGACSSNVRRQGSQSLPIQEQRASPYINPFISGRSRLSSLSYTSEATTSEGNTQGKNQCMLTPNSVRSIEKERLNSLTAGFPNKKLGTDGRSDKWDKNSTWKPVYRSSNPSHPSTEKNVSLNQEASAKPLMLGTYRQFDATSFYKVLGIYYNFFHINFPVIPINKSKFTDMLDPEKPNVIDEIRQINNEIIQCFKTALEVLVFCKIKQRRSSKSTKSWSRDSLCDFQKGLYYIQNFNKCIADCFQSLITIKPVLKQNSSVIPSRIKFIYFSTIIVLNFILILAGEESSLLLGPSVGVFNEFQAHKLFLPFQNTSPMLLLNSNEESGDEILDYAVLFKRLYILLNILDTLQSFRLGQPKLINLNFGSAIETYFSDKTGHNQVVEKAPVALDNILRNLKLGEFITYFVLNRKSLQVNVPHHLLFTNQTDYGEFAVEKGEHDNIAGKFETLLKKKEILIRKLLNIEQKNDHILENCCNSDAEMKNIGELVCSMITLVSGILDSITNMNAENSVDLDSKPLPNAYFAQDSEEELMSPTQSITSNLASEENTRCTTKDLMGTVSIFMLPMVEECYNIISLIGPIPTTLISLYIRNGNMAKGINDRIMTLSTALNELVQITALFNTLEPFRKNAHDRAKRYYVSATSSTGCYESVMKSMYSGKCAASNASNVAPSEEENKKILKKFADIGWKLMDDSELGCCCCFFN
Procedure, shortened: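 E-scores (a modified Wilcoxon-Mann-Whitney statistic) were assigned by the Universal PBM Analysis Suite to every ungapped eight-base word pooled with its reverse complement. The input came from universal all-10-mer Agilent arrays made double-stranded by primer extension and probed with GST-tagged yeast transcription factors at about 100-200 nM. Fluorescent anti-GST detected bound protein, and masliner normalised the scans.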

Sequence	PBM E-score
ACTCGGGG	-0.203
AGGTTCCA	-0.0608
AGGCAGAT	0.0307
CCTCCAGA	-0.116
AATGCGGT	-0.0179
GGACCACA	-0.00774
CGTTTTAG	-0.00628
ACGAAGTA	0.124
GCTCAGGA	0.0718
AAAGTGTT	0.119
AGTCCGCC	-0.112
CACGTACA	-0.0136
ATAGTAAG	0.142
GACTTCGA	-0.0795
CAGCTTCG	0.0788
GCGAGTTA	-0.0299
GATTTAGA	0.221
CGCAACCG	-0.145
AAGCGTAC	-0.226
AATCTATA	0.297
ATAGGATG	0.149
AGCGAGGC	-0.225
CGGGGTGA	0.0413
ACTGTGCA	0.031
TGAGGCCA	-0.143

Sequence	PBM E-score
CCTTTTTA	0.161
CGAGGTTA	0.0654
CGTAAATC	-0.103
CATTGGAC	-0.141
AGCCTACG	0.00613
AAGCTTAC	0.0655
TCGGTGAA	-0.0318
TAACATGA	0.0898
GAGGGAGA	-0.213
CGCCCTGC	-0.184
AAAACCTC	0.181
CAGTGCTC	-0.00589
ATTAAGCA	-0.0125
GAGGATCA	0.0676
CGAGCAGC	-0.0631
TGCGGCCA	-0.124
AATTTAGT	0.241
AGATGGAA	0.112
GTGGTTGA	0.0246
AAGGCGTA	-0.0227
CGGTTCGC	-0.0495
CCAAATGG	0.0448
ATAGGCTG	-0.063
ACTATGTC	0.0491
AGCCTTGC	-0.133

Sequence	PBM E-score
AGTCAGGG	-0.304
ACGTAGGG	-0.243
GCTTCGAC	-0.199
CGTAGAAA	0.0466
GAAACTTA	0.332
CAGTCGCC	-0.151
TGAACCCA	0.117
AGATTCAT	0.101
AGGAAGCA	-0.179
AGTTTTTA	0.181
CAAGTGGA	-0.0181
CCTGAGGA	-0.0313
CGTACTAC	0.00519
CACAACAA	0.174
AATCTGGT	0.0844
AGCCGGAT	0.133
AAACTTTA	0.219
AAGTATTA	0.146
GCTCAGCA	-0.0236
TAGTCCGA	-0.0149
GACCAAAC	-0.17
ACACCCGC	0.0959
AATAGGTG	0.0376
ACCCCTAC	-0.242
AAAAACAT	0.21

Sequence	PBM E-score
AGCCCTAT	-0.163
CTTACACC	-0.2
CTTGGACA	0.0117
ATCGTCCG	-0.0138
AAATTCAT	0.227
CACCCGTA	-0.0339
ACTTCATG	-0.118
CCGCGAAC	-0.0246
AACAGTTA	0.204
AGAGGAGC	-0.168
AATCCATG	0.115
ACGCGCCG	-0.0849
GAGGGAAA	0.0515
GCTACGCC	-0.239
CTCCCATA	-0.157
ATCTCTTG	-0.037
AGGGCACT	-0.316
CCGTAACC	0.107
ATTGCAGA	0.151
CACCCTGG	-0.285
ACAGCCAC	-0.0773
CCTCATGC	-0.253
CCCCTTTA	-0.223
CGGTCGTC	-0.138
ACCATGGT	-0.184

Sequence	PBM E-score
ACTCTGAG	-0.214
GAGAACCA	0.00903
CACGGGAA	-0.128
ATACTCTC	0.158
CCCCCACC	-0.419
CCCAGACG	-0.308
CCTAGGTA	-0.0225
AGGCTCAG	-0.119
GGCGGAAA	0.0617
ATACCCCC	-0.254
CGGGAAAC	0.0713
CTACACTC	-0.139
TGCTACCA	-0.0533
TAGCACGA	0.172
ACCTCTTG	-0.143
AACCCGAA	-0.0468
ATGGCTGA	-0.0728
CGCCGGAC	-0.243
CAATCCTG	0.0991
CACTCCGG	-0.00518
AATCGAAG	0.108
ATTTGCGG	0.131
CCGATGCC	-0.114
TAGCGAGA	0.104
AACCCTCT	-0.12

Sequence	PBM E-score
AGCCTAGC	-0.0427
CCGCGTCA	-0.239
AGACCCGA	-0.0272
ATTAGTAG	0.158
GACTATCC	-0.107
ACACCTCT	-0.0836
CAGAGACA	-0.169
CTCCCATC	-0.0653
AACAACTT	0.291
GCCACGGA	-0.179
ACACTTTG	0.0993
GAATTAGA	0.0828
CGGCCTCA	-0.00758
ACAACTTC	0.237
AGCTCGTC	-0.251
TTATGAAA	0.228
GCTGCAAA	0.158
CCGCAAAA	0.162
ATTAGACC	-0.0843
CCGATTCA	-0.0631
CGGGCCCA	-0.29
AGGACCCC	-0.285
GTGGGAAA	0.201
CAACGACC	-0.122
CTCACCCA	-0.0925

Sequence	PBM E-score
CCGGGTAC	-0.241
CGTGACAC	-0.127
TATAGAGA	0.0967
CGCGACTC	-0.0291
CCATTTCA	-0.0615
AGCAGATG	-0.192
CTCATGTA	0.133
GCAACGAC	-0.0901
AATCGAAA	0.188
AAAGCGGG	-0.177
CAAGAGTA	0.0971
CCGACTCA	-0.104
AGTTTGTA	0.184
CGATCGGA	-0.112
GAGACCAC	-0.182
AGGTTGAT	-0.00875
ATACCAGC	-0.012
CGATTACG	-0.00042
ATATCGAC	0.043
CGTATTCA	0.0755
GACCTACC	-0.0451
ATTTGAAG	-0.00835
